Measurements from paper PMC12136788.
Some of the results follow.

T1: UNK ZnF1-3 (human, UniProt Q9C0B0 31-174)
T1 sequence: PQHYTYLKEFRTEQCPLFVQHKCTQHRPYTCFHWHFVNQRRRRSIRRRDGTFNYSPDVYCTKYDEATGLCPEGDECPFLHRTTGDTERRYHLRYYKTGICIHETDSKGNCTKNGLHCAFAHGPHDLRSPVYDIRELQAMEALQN

B1: 21566091_21566211_1653_CDS_ENSMUSG00000042453_ENSMUST00000161356|mouse|control|control (ssRNA)
RNA: GGGAGUUCUACAGUCCGACGAUCGCCAUAACCAGUUGUAUCCAUGUAGGGGGUGCAAAGCUUCCUCUCUCCAUCUUUGAGGAACACCAGUGAUAGUCCUGAUUCUACGGUUCCACAGUCUGCACCAACUACUGCUCCCAAGAUCAACAGAGGAUUGAGCAUCA
B2: chr19:34954956:34954957:+_ENSG00000126261_ENST00000246548|hu_mus|FALSE|FALSE (ssRNA)
RNA: GGGAGUUCUACAGUCCGACGAUCGAUCAGCAAAGUAUAGUCCUGGAGGAAGUCGUCUGCUUGAAGCCGGCUGCCGUUUCUAAUUCCAAAAUCAGACAACUUCUUGGGGUUAUUGGCUUCUGUCUCUCCCUCUUCUGAAGAUAUCAACAGAGGAUUGAGCAUCA
B3: chr10:7519382:7519383:+_ENSMUSG00000015757_ENSMUST00000015901|mus_mus|motif|central (ssRNA)
RNA: GGGAGUUCUACAGUCCGACGAUCAGGCUCGGGUGAUCGAUCAGGAAUUAAUAAAUCAGGAGGGUCAUCAAAUGGAUCAUCGGAAAUCACUGUAUGAUUUAUCCUUAUAUCUUGAUAUGGUACAAAAUCCUUGUCCACAAAGGUCAACAGAGGAUUGAGCAUCA
B4: chr1:115282363:115282364:-_ENSG00000009307_ENST00000339438|perfect_dup|motif|central (ssRNA)
RNA: GGGAGUUCUACAGUCCGACGAUCAUCAUCUCCUACUUUUAAGUCUUGCAGGUUGCCAUUAUACUGUGAACAGUGGAAGAAAAGUCGGGCUUGACGUUCUGAACACUGAAUAAAUCCGUAAGAGGUUAACAGUUUUUCAAUAACCAACAGAGGAUUGAGCAUCA
B5: chr11:115359187:115359188:-_ENSMUSG00000020737_ENSMUST00000021083|mus_mus|motif|central (ssRNA)
RNA: GGGAGUUCUACAGUCCGACGAUCGUACAUAAGAGUCUCUACACAUCAGGAACCAGAUCAUCUGUUCUUAGAAACAGUCGGCGGCUCCAGUCUACUACUAGAAAACACUCAUGCCAUGGCGCACAGACCCAGGAGUCAGACAGACAACAGAGGAUUGAGCAUCA
B6: chr6:38652254:38652255:-_ENSG00000124767_ENST00000373365|hu_hu|hu_hu_hu_mus_False|68_88 (ssRNA)
RNA: GGGAGUUCUACAGUCCGACGAUCCGAGAACUUCAUAGCAGGGAAGUCACAUUUUUGCAGGAGGGUCAUUCCAAGAACCCUCGUAUAAAAAUCCAGGGACUUCUUAGGAUCCUUAAUUCUUAGCAUCGUUUGCUGCAGUAGAAACAACAGAGGAUUGAGCAUCA
B7: chr17:13113627:13113628:+_ENSMUSG00000068039_ENSMUST00000151287|mus_mus|FALSE|FALSE (ssRNA)
RNA: GGGAGUUCUACAGUCCGACGAUCAAGCUUCAUUUUUGUUUUCUGCAGGCUGAAGUCAAGACAAGCAAUUUUUGCAUUAACUAUUCUCUUGGGCAUGCCCUGAGAUCCAACCACACAAUUGAGCGCAUAGCCAUUGAUCAGCAUCAACAGAGGAUUGAGCAUCA
B8: chr9:45784209:45784210:-_ENSMUSG00000003131_ENSMUST00000172450|mus_mus|FALSE|FALSE (ssRNA)
RNA: GGGAGUUCUACAGUCCGACGAUCGGAGUCCCCCACAAACAGCACAUCUGGUUCUUUGUCUUUACAGUCCAGAACAAACCUAUUAUGCUGAGACAUCCACCUGUCAUCUCCUUGAAUAUCUUCUGCGGCAUGUGGAAUAGCUGCCAACAGAGGAUUGAGCAUCA
B9: chr1:39494447:39494448:+_ENSG00000168653_ENST00000372967|hu_mus|hu_hu_hu_mus_False|8_28 (ssRNA)
RNA: GGGAGUUCUACAGUCCGACGAUCGCACCGAGCGGCGUUCUUAUAGGGCUGUUCUGCGCUUAGGAACAUAAAGUGCCGGUCCAGGCUGAUGCCCAGCUUUUUCUGUAUGUCCAAGAAAGGCAUGGCUGAUGCUCGUGCUUGUCACAACAGAGGAUUGAGCAUCA
B10: chr12:112777701:112777702:+_ENSMUSG00000021282_ENSMUST00000166123|mus_hu|FALSE|FALSE (ssRNA)
RNA: GGGAGUUCUACAGUCCGACGAUCCGGUCUCUGACAUGAAAAAAUUUUCGCCACUGAGGCUGUAAGCUUCUUGCUUGUAUGCUAUGUUUCCCCAAUACAGGUACCAAUGGCUGCGCAACAGCUCUGAAAGAAAAAGGGAAAGAACAACAGAGGAUUGAGCAUCA
B11: chr3:10015032:10015033:+_ENSMUSG00000027533_ENSMUST00000029046|mus_mus|mus_mus_mus_hu_True|38_78 (ssRNA)
RNA: GGGAGUUCUACAGUCCGACGAUCGUUUUUACCAUCACAAGUGAUGAUACAAUCUGGCUUGGCCAUGGCGCCCAUUUUUCGCAAAGCUAUUCCCACUCCUAGCUCUUUCAUGUAUUCAUCAAAGCCUUUGCUGUCCACCAGGCGCAACAGAGGAUUGAGCAUCA
B12: chr18:54424204:54424205:+_ENSG00000091157_ENST00000357574|hu_hu|motif|central (ssRNA)
RNA: GGGAGUUCUACAGUCCGACGAUCCCAGGCGUGAAGGCAGGACAUAAACAGCUUUGCAGUGUCCAUAGUUAAAUUAUAUUCGGAUAGGGUCAAUGGCUUUGAUUUGCUGGACCGAUAUUCAGGAUCACUUUCUUCCCUUCUCUGCAACAGAGGAUUGAGCAUCA
B13: 125322355_125323946_4145_CDS_ENSMUSG00000030655_ENSMUST00000032891|mouse|control|control (ssRNA)
RNA: GGGAGUUCUACAGUCCGACGAUCGGAUUUCUGAAGCUCCCGUGGGUCUGGGCUUAGCAUGUUAGGAAGCAGCUUUUUCAUAUCUAUUUUUUCUUUUGACCCUCCAGCAAGUAGAUUAAUAUUUUCUCCUGGUAAUAAUUCCAACAACAGAGGAUUGAGCAUCA
B14: chr11:48616917:48616918:+_ENSMUSG00000020372_ENSMUST00000020640|mus_hu|FALSE|FALSE (ssRNA)
RNA: GGGAGUUCUACAGUCCGACGAUCGACGAUGAUAGGGUUGCUGCUGUUGGGCGAGAAGCGGACACAAGACACCCACUCUGAGUGGCUCUCAUCCUGGACAGUGUAUUUGCACACACCCAGGGUAUUCCAUAGCUUGAUGGUUUUCAACAGAGGAUUGAGCAUCA
B15: chr1:220379288:220379289:-_ENSG00000118873_ENST00000358951|hu_mus|motif|central (ssRNA)
RNA: GGGAGUUCUACAGUCCGACGAUCUGAUGCUGCAGCUUUUGCUACUUGGUUUCGACAGGCUCGAAGAGACUGAAAGAGACGGAAUCCAUCAAUCGUCACAAUGGCGGCUGGAUAUAAGAUGCUCAGUUCUUCAUUCUGCUCAGUCAACAGAGGAUUGAGCAUCA
B16: chr8:104447970:104447971:+_ENSG00000164934_ENST00000297579|hu_hu|hu_hu_hu_mus_False|1_18 (ssRNA)
RNA: GGGAGUUCUACAGUCCGACGAUCAUACACUUCCCUGCUUCGGCUCUUGUCCACAGGAAAGAUUCUAAUAGACUUAUCAAAGCUGGCAGACACAAAUUCCUUCCCAGUGGGAGAGUAAUCCACAUCAAGUACUGCAGAUACAUGCAACAGAGGAUUGAGCAUCA
B17: chr16:33496766:33496767:+_ENSMUSG00000022811_ENSMUST00000165418|mus_mus|FALSE|FALSE (ssRNA)
RNA: GGGAGUUCUACAGUCCGACGAUCUGAUCCAACAUUCUCUGACUGGGUGACUUCAGGUACAUCGGAAGAAUUGAUUGAUAUGCUAGAAGUCACUUCAGUAUCUGCAACGCUGAAGGAAAUCUCAUGCUGUCCAUUAGGUUUGUGCAACAGAGGAUUGAGCAUCA
B18: 155537933_155538053_2874_CDS_ENSG00000184863_ENST00000401878|human|control|control (ssRNA)
RNA: GGGAGUUCUACAGUCCGACGAUCAUGUUUCAGUGCUUUCAUCUGUUGUCCUUGAUACUGCAUGUUGGCACUGGAUGGUACAAAAUUGGAUGUUUUGGGCUGAACGUUUGAAAUACUGACAUCCUGGUUUUUAACAAGAAGUCUCAACAGAGGAUUGAGCAUCA
B19: chr12:39763582:39763583:-_ENSG00000139116_ENST00000544797|hu_mus|hu_hu_hu_mus_False|28_88 (ssRNA)
RNA: GGGAGUUCUACAGUCCGACGAUCCUCUAGGAACUGGGCAUUCACUUUAAAAUCUGGAGGGGGCAGCCCGUUUUUAAUCGCUGAGGUCUUUUUCUCAUCAAUACUCUUAAAAAGGUGUCUAACAGCACGAGAGAUGAUGCCCUGCAACAGAGGAUUGAGCAUCA
B20: chr16:45382771:45382772:-_ENSMUSG00000022661_ENSMUST00000163230|mus_mus|mus_mus_mus_hu_True|68_68 (ssRNA)
RNA: GGGAGUUCUACAGUCCGACGAUCCUGGGUCAUGUUAUAAGACAAAUGGACAGGGAGGGCAUGCUUCUGUAAAGAUGUGAGCUAUUGUCUAAGACUAACAAUAUUUAUCUAGCUAUAAAAAUAAGUUAAAUGAAUAAGUUAAGACAACAGAGGAUUGAGCAUCA
B21: chr7:134094464:134094465:+_ENSMUSG00000030683_ENSMUST00000106335|mus_mus|motif|central (ssRNA)
RNA: GGGAGUUCUACAGUCCGACGAUCCUCGCUGUCACUUUCCCUCUGCGUCCUUUUAUCUUUUCCUUUAAUUUUGCUUUCCUGCGGAGGGUCGGCAAAGGAAGGCAAAUUUUCUUCCUUUGGGAUGGAGAAGCAGAAUUGGCCUAGCAACAGAGGAUUGAGCAUCA
B22: chrX:71549762:71549763:+_ENSMUSG00000019087_ENSMUST00000019231|mus_mus|mus_mus_mus_hu_False|28_78 (ssRNA)
RNA: GGGAGUUCUACAGUCCGACGAUCAAACCCGUGUACUUCUUAUUGUUAGCACAACAUUCCCCCCCAACGAUAACGACAGCCAAGCAGGACAGACAGUUAAGUAGUACUUCCACACCUCCAAACUCAGGGAGCCCUAUAACCUUACAACAGAGGAUUGAGCAUCA

molecular target: T1, UNK ZnF1-3; test: nsRBNS (natural sequence RNA bind-n-seq); RBNS binding buffer (assumed for nsRBNS): 25 mM Tris pH 7.5, 150 mM KCl, 3 mM MgCl2, 0.01% Triton X-100, 500 ug/ml BSA, 20 U/ml SUPERase-In, 4 C; UNK is unkempt and MSI1 is Musashi-1; names of the RNAs are library labels; protein concentration not given here; high values mean tight binding

Binder	binding signal [enrichment R]
B1	0.949
B2	1.09
B3	0.8
B4	1.55
B5	1.19
B6	0.795
B7	0.795
B8	0.676
B9	0.726
B10	1.7
B11	0.741
B12	1.29
B13	1.02
B14	0.582
B15	0.89
B16	0.885
B17	0.618
B18	0.538
B19	1.96
B20	1.9
B21	0.832
B22	1.73
